According to the supplement of paper PMC3334620:
In all, about 33,000 sequences were measured (“E-score (-0.5 to 0.5)”: median about -0.016, highest 2% from about 0.31 on). Some of the results follow.

biological target: Cst6 (UniProt P40535); test: PBM E-score (8-mer binding enrichment) (E-score (-0.5 to 0.5)); higher = stronger / more preferred TF binding; most listed sequences are background and not binding sites; settings: protein concentration: 200 nM; construct: GST-DNA-binding domain
Procedure: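 Universal 'all 10-mer' protein binding microarrays (Agilent AMADID 015681) probed with GST-tagged S. cerevisiae TFs (full-length or DBD) made by in vitro transcription/translation (PURExpress), about 100-200 nM. Bound TF was detected with fluorescent anti-GST. Each ungapped 8-mer (which stands for itself and its reverse complement) is scored by the PBM enrichment score (E-score), a modified Wilcoxon-Mann-Whitney statistic from -0.5 to +0.5, computed with the Universal PBM Analysis Suite. Scale: above 0.35 generally sequence-specific binding.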

First: CGAAGTGA
Second: ACGTTCGG
The “PBM E-score” value of the first is higher: 0.135 for the first, -0.172 for the second.

Compared with GCACGAGC, GCATAGAC is lower in “PBM E-score” value: -0.099 for the first, -0.165 for the second.

Going from AGAAACAT to AGGGACCA, the “PBM E-score” value falls from 0.135 to -0.245.

Going from GCTCCGCC to AGTCTACC, the “PBM E-score” value falls from -0.185 to -0.307.

First: ACTGTTAG
Second: CTTCGCTC
The “PBM E-score” value of the first is lower: -0.0504 for the first, -0.00522 for the second.

First: CTGCCGTC
Second: GAAATCCA
The “PBM E-score” value of the first is lower: 0.0959 for the first, 0.106 for the second.

Going from GGTTAATA to CAGCTGGG, the “PBM E-score” value falls from 0.115 to -0.33.

Compared with CTAACGAA, GGGTGAAC is lower in “PBM E-score” value: 0.0703 for the first, -0.0245 for the second.

First: CTGTTCGA
Second: AAGTGATT
The “PBM E-score” value of the first is lower: -0.178 for the first, 0.167 for the second.

Going from ATTCCTCC to CTGTTGCC, the “PBM E-score” value falls from -0.175 to -0.21.

Going from GACTTTTA to ATAGACCG, the “PBM E-score” value falls from 0.0138 to -0.135.

First: ACGATTAG
Second: GTGTTTAA
The “PBM E-score” value of the first is higher: 0.146 for the first, 0.086 for the second.

Going from GCAAAAGA to ATAGCCCG, the “PBM E-score” value falls from 0.0271 to -0.168.

First: ATACGCGG
Second: AGGGACTG
The “PBM E-score” value of the first is higher: -0.0099 for the first, -0.286 for the second.

First: ACAACCCC
Second: GATGGTAC
The “PBM E-score” value of the first is lower: -0.169 for the first, -0.00144 for the second.

First: ATCAGATC
Second: CAATTGTA
The “PBM E-score” value of the first is higher: -0.0398 for the first, -0.0548 for the second.

Compared with AACGAGTA, CGTGGATA is lower in “PBM E-score” value: 0.0339 for the first, -0.0636 for the second.

Going from ATCCAGTC to AAGCGGTC, the “PBM E-score” value falls from -0.124 to -0.162.

First: ACGTTCAG
Second: GCGGTACA
The “PBM E-score” value of the first is lower: -0.119 for the first, 0.0324 for the second.

First: AGCACACT
Second: AGACTACC
The “PBM E-score” value of the first is lower: -0.136 for the first, -0.0496 for the second.

Compared with ATCAAACC, GCATAGCC is lower in “PBM E-score” value: 0.134 for the first, -0.144 for the second.

Going from CCATTATC to CCAGTCCG, the “PBM E-score” value falls from 0.109 to -0.369.

First: AACAGATC
Second: GTTGGCTA
The “PBM E-score” value of the first is higher: 0.0882 for the first, -0.0861 for the second.

First: ACGCGCCC
Second: GGGTTACC
The “PBM E-score” value of the first is higher: 0.0513 for the first, -0.19 for the second.

First: CGTGCAAC
Second: GTCTTAGA
The “PBM E-score” value of the first is higher: 0.0271 for the first, -0.0166 for the second.

Going from GCTGCTAA to AATACAGG, the “PBM E-score” value rises from -0.157 to -0.00258.

First: ATAACGGA
Second: AGGCTTAT
The “PBM E-score” value of the first is higher: 0.0881 for the first, 0.0253 for the second.

Compared with ATAGCCTA, CCCCTCCA is lower in “PBM E-score” value: -0.00384 for the first, -0.131 for the second.

Going from AGATTCCC to ACGATGGG, the “PBM E-score” value falls from -0.0816 to -0.123.

Going from CTATAACA to CCTGGGGC, the “PBM E-score” value falls from -0.00043 to -0.365.

First: AACTGCTC
Second: CGCTCTCC
The “PBM E-score” value of the first is higher: -0.0302 for the first, -0.244 for the second.

Going from ACATGAAT to CATCTGCC, the “PBM E-score” value falls from 0.154 to -0.172.

Going from TAATCAGA to CATTTCAC, the “PBM E-score” value falls from 0.0853 to 0.0118.

Going from CTCCGCAC to GCCCTCAC, the “PBM E-score” value falls from -0.0765 to -0.144.

First: CGATCTAC
Second: GTTGCTAA
The “PBM E-score” value of the first is lower: -0.0652 for the first, 0.0649 for the second.

Going from CTGTGAAG to CCCTGTGA, the “PBM E-score” value rises from -0.145 to -0.0755.

Going from CGAACAGC to CCTGTTAC, the “PBM E-score” value rises from -0.162 to 0.0428.

Going from ATTTCCCA to ATAACACG, the “PBM E-score” value falls from 0.0756 to 0.0187.

First: AGGCATCC
Second: GGAAGTTA
The “PBM E-score” value of the first is lower: -0.192 for the first, 0.0687 for the second.

Going from AATCAAAC to GGTTCATA, the “PBM E-score” value falls from 0.228 to -0.0466.

First: CCCCCCGG
Second: AGAGATCC
The “PBM E-score” value of the first is lower: -0.359 for the first, -0.209 for the second.

First: CTAGCCGC
Second: CCACTTAC
The “PBM E-score” value of the first is lower: 0.122 for the first, 0.226 for the second.

First: GGCGCGCC
Second: ACTACAAT
The “PBM E-score” value of the first is higher: 0.189 for the first, 0.124 for the second.

Going from ATTGCAAG to AGATCACA, the “PBM E-score” value rises from -0.0304 to 0.0965.

Compared with AAGGCTAT, AGGCAGAA is lower in “PBM E-score” value: -0.00067 for the first, -0.0542 for the second.

Compared with CCCGAAAG, CATGTGGC is higher in “PBM E-score” value: -0.189 for the first, 0.198 for the second.

Compared with CGTCCATA, GCGGTATA is lower in “PBM E-score” value: 0.0416 for the first, -0.0382 for the second.

Going from GGCCACCA to CGGAATTA, the “PBM E-score” value rises from -0.0259 to 0.139.

First: AGAGCAAG
Second: ACACGAGT
The “PBM E-score” value of the first is lower: -0.096 for the first, 0.028 for the second.

First: GGTACTAA
Second: ACAATCGT
The “PBM E-score” value of the first is higher: 0.0892 for the first, 0.0442 for the second.

First: GTGGCTAA
Second: ACGATCCC
The “PBM E-score” value of the first is higher: 0.18 for the first, -0.247 for the second.

Compared with CCAAGCGG, ACCTGATA is higher in “PBM E-score” value: -0.277 for the first, 0.0632 for the second.

First: CCCGTTCA
Second: CCAACAGG
The “PBM E-score” value of the first is higher: -0.214 for the first, -0.296 for the second.

Compared with CTATATAC, AAAGGGGG is lower in “PBM E-score” value: 0.338 for the first, -0.279 for the second.

First: TTGACAAA
Second: ATGCGAAT
The “PBM E-score” value of the first is higher: 0.173 for the first, 0.0707 for the second.

Going from AATAATGA to GAAAATGA, the “PBM E-score” value falls from 0.288 to 0.172.

Going from AACCTTAT to ACTCCGGA, the “PBM E-score” value rises from -0.0574 to 0.078.

Going from AACGGATA to CCAGTCAA, the “PBM E-score” value falls from 0.17 to -0.094.

Going from ACGGGCAC to CGCGAGGC, the “PBM E-score” value rises from -0.105 to 0.218.

First: AATAGATC
Second: CCTTAGCC
The “PBM E-score” value of the first is higher: 0.0908 for the first, 0.00557 for the second.

Going from TCTAAAGA to AAGTCATC, the “PBM E-score” value falls from 0.141 to 0.114.

Going from AGAAGGCC to AAGAACGG, the “PBM E-score” value falls from -0.15 to -0.194.

Compared with CTGCCAAA, CGATTCTA is higher in “PBM E-score” value: -0.093 for the first, -0.0553 for the second.

First: AAAAGTCC
Second: AGTCCACT
The “PBM E-score” value of the first is higher: -0.0737 for the first, -0.257 for the second.

First: AAGAAGGT
Second: CTACCGCC
The “PBM E-score” value of the first is higher: -0.0538 for the first, -0.135 for the second.

Going from CGATAAGC to TGGAGGAA, the “PBM E-score” value falls from -0.119 to -0.211.

First: AGATAGGG
Second: AGACCAAG
The “PBM E-score” value of the first is lower: -0.153 for the first, -0.0456 for the second.

First: GAATGCAA
Second: ACCGGTAC
The “PBM E-score” value of the first is higher: 0.0526 for the first, -0.162 for the second.

Compared with GCGTTAGA, AATTAACG is higher in “PBM E-score” value: -0.0463 for the first, 0.226 for the second.

Compared with ATTACCTC, AACGCGAC is lower in “PBM E-score” value: 0.195 for the first, -0.14 for the second.

Going from ATGCAAAG to GGGCTTCA, the “PBM E-score” value falls from 0.0281 to -0.297.

Going from ATAGTCAG to CAAACGCG, the “PBM E-score” value rises from 0.0343 to 0.0743.

Compared with GCACCAGA, AGCCGCAA is lower in “PBM E-score” value: 0.025 for the first, -0.127 for the second.

Going from CCGCTTTC to ACAATAAT, the “PBM E-score” value rises from -0.117 to 0.233.

Compared with CGACCTCG, TCACGAGA is higher in “PBM E-score” value: -0.0837 for the first, 0.0367 for the second.

Compared with ACTGAAGC, CACTCCTG is lower in “PBM E-score” value: 0.069 for the first, -0.129 for the second.

Going from ATGATAGC to GAAAGTCA, the “PBM E-score” value falls from 0.191 to 0.0808.

First: AAAGCCCA
Second: AAGAATTA
The “PBM E-score” value of the first is lower: 6e-05 for the first, 0.157 for the second.

First: ACCCGGAA
Second: CTGAAGGC
The “PBM E-score” value of the first is higher: -0.0522 for the first, -0.0853 for the second.

First: GTCTAGAA
Second: TATTTAGA
The “PBM E-score” value of the first is lower: -0.0503 for the first, 0.156 for the second.

Going from CATCCCCG to CAAAATTC, the “PBM E-score” value rises from -0.107 to 0.246.

Compared with ATCTGGTC, TGATGCAA is higher in “PBM E-score” value: -0.126 for the first, 0.418 for the second.

Going from GACAAACA to TGCCGACA, the “PBM E-score” value falls from 0.123 to 0.0401.

Going from CCATTGTA to TACAAGCA, the “PBM E-score” value rises from 0.0543 to 0.126.

First: AATGCACT
Second: ACGTATAT
The “PBM E-score” value of the first is lower: 0.0519 for the first, 0.237 for the second.

First: CCCGAAAC
Second: CTACAGGA
The “PBM E-score” value of the first is lower: -0.0275 for the first, -0.0104 for the second.
